{"source": "the RNAGym collection of RNA variant scans (doi:10.1073/pnas.2313332121)", "parents": {"B1": {"name": "TPR 5TU (parent)", "chain": "GGAUCUUCUCGAUCUAACAAAAAAGACAAAUCUGCCACAAAGCUUGAGAGCAUCUUCGGAUGCAGAGGCGGCAGCCUUCGGUGGCGCGAUAGCGCCAACGUUCUCAACUAUGACACGCAAAACGCGUGCUCCGUUGAAUGGAGUUUAUCAUG"}}, "note": "This sample is rich in variants without activity.", "data": [{"variants_of": "B1", "experiment": "polymerase ribozyme fitness, log enrichment relative to wild type (log ratio); higher = more active; in vitro selection for triplet polymerase activity", "procedure,_shortened": "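Mutant libraries were PCR-built and transcribed for each subunit of a heterodimeric triplet polymerase ribozyme and selected for one round in triplicate at −7 °C, frozen, before gel excision of extended constructs and streptavidin-bead capture. Input and output libraries were Illumina-sequenced, keeping genotypes with ≥10 input reads and ≥1 read per output. Fitness is a logarithmic ratio of genotype to wild-type enrichment, in base 2, using inverse-variance-weighted replicate averages.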", "values": [{"variant": "A47G U53A A91U C99U A107G U127G U148A", "polymerase ribozyme fitness (log ratio)": "≤ -4.2"}, {"variant": "A47G G62U U145C U151A", "polymerase ribozyme fitness (log ratio)": "≤ -4.2"}, {"variant": "A47U U55G G59C C63A G65A U148A", "polymerase ribozyme fitness (log ratio)": "≤ -4.2"}, {"variant": "G46A C75G C76G A97C A98G G128U", "polymerase ribozyme fitness (log ratio)": "≤ -4.2"}, {"variant": "U45G G84C A89G C96U G117C U144A A147C", "polymerase ribozyme fitness (log ratio)": "≤ -4.2"}, {"variant": "A47C G124U", "polymerase ribozyme fitness (log ratio)": -1.09}, {"variant": "A47G A60U G86U G100A C108A C125G", "polymerase ribozyme fitness (log ratio)": "≤ -4.2"}, {"variant": "U45A G67A C69G C99U", "polymerase ribozyme fitness (log ratio)": "≤ -4.2"}, {"variant": "A47C C57A U102G A113G", "polymerase ribozyme fitness (log ratio)": "≤ -4.2"}, {"variant": "G46A A49U G62U G84C A97G U109G", "polymerase ribozyme fitness (log ratio)": "≤ -4.2"}, {"variant": "U45G C93G C123A", "polymerase ribozyme fitness (log ratio)": "≤ -4.2"}, {"variant": "U45G C129G A142G U148C", "polymerase ribozyme fitness (log ratio)": "≤ -4.2"}, {"variant": "U45A G83C C105U C131G", "polymerase ribozyme fitness (log ratio)": "≤ -4.2"}, {"variant": "A47C C51A C54U U61A C79A C93G C95A C132U C149U", "polymerase ribozyme fitness (log ratio)": "≤ -4.2"}, {"variant": "G46A U55A C129A U139G U146C", "polymerase ribozyme fitness (log ratio)": "≤ -4.2"}, {"variant": "G46A C96G U102G", "polymerase ribozyme fitness (log ratio)": "≤ -4.2"}, {"variant": "U45G C87G A91U C99G C105U A137G", "polymerase ribozyme fitness (log ratio)": "≤ -4.2"}, {"variant": "A47G G50A A52U C63A A142C", "polymerase ribozyme fitness (log ratio)": "≤ -4.2"}, {"variant": "A47G G58C G88A A119G C129G", "polymerase ribozyme fitness (log ratio)": "≤ -4.2"}, {"variant": "U45A G67C C85A C95G", "polymerase ribozyme fitness (log ratio)": "≤ -4.2"}, {"variant": "U45A G83C", "polymerase ribozyme fitness (log ratio)": -3.51}, {"variant": "U45G G94A U104G C116A", "polymerase ribozyme fitness (log ratio)": "≤ -4.2"}, {"variant": "G46C A60C C85A G88A A106C A107U G117A G128U U135A U148A", "polymerase ribozyme fitness (log ratio)": "≤ -4.2"}, {"variant": "A47G A60G G65U G80U G84C", "polymerase ribozyme fitness (log ratio)": "≤ -4.2"}, {"variant": "U45G A66G", "polymerase ribozyme fitness (log ratio)": "≤ -4.2"}, {"variant": "A47C G92A A107G", "polymerase ribozyme fitness (log ratio)": "≤ -4.2"}, {"variant": "A47C U55A C57A G84U C96U C99U G136A G143C", "polymerase ribozyme fitness (log ratio)": "≤ -4.2"}, {"variant": "U45G A52U U55A A73U C85U G117A C149A", "polymerase ribozyme fitness (log ratio)": "≤ -4.2"}, {"variant": "U45A U77G G84U C118U", "polymerase ribozyme fitness (log ratio)": "≤ -4.2"}, {"variant": "G46U G80C U102C U151C", "polymerase ribozyme fitness (log ratio)": "≤ -4.2"}, {"variant": "U45G A60C C69A C75U C87G A89C A97U A119G G136C", "polymerase ribozyme fitness (log ratio)": "≤ -4.2"}, {"variant": "A47C A73C C93G G140U", "polymerase ribozyme fitness (log ratio)": "≤ -4.2"}, {"variant": "A47C U130G", "polymerase ribozyme fitness (log ratio)": "≤ -4.2"}, {"variant": "A47C G48A G80U G88U", "polymerase ribozyme fitness (log ratio)": "≤ -4.2"}, {"variant": "A47C G50C A52C G84C C96U A107U A137C", "polymerase ribozyme fitness (log ratio)": "≤ -4.2"}, {"variant": "U45A G94A", "polymerase ribozyme fitness (log ratio)": -2.81}, {"variant": "A47G U55A U56A A91U A121G A137C", "polymerase ribozyme fitness (log ratio)": "≤ -4.2"}, {"variant": "U45G G50A C87A C103U G124A", "polymerase ribozyme fitness (log ratio)": "≤ -4.2"}, {"variant": "A47G G80U A91U A121U", "polymerase ribozyme fitness (log ratio)": "≤ -4.2"}, {"variant": "G46A U77A U82C A91U A106U", "polymerase ribozyme fitness (log ratio)": "≤ -4.2"}, {"variant": "A47C U82G C96G G140C", "polymerase ribozyme fitness (log ratio)": "≤ -4.2"}, {"variant": "A47C A120G G140C", "polymerase ribozyme fitness (log ratio)": "≤ -4.2"}, {"variant": "G46A A52G C54G G58C A91U A122C", "polymerase ribozyme fitness (log ratio)": "≤ -4.2"}, {"variant": "A47G C51G C76U C87U U104G A107U U151C", "polymerase ribozyme fitness (log ratio)": "≤ -4.2"}, {"variant": "G46A U55A U78A A91U G133U", "polymerase ribozyme fitness (log ratio)": "≤ -4.2"}, {"variant": "A47G A64C G70U C85U G92A U109A", "polymerase ribozyme fitness (log ratio)": "≤ -4.2"}, {"variant": "G46C C54A G86A C93U C118A C129U", "polymerase ribozyme fitness (log ratio)": "≤ -4.2"}, {"variant": "G46A A47U A52G C54A G100C U139A U144G", "polymerase ribozyme fitness (log ratio)": "≤ -4.2"}, {"variant": "A47U G50A C75U A110G A113G", "polymerase ribozyme fitness (log ratio)": "≤ -4.2"}, {"variant": "A47U A66C C76G G83A A106C", "polymerase ribozyme fitness (log ratio)": "≤ -4.2"}, {"variant": "A47U A52G U144G", "polymerase ribozyme fitness (log ratio)": 0.507}, {"variant": "A47U C57U", "polymerase ribozyme fitness (log ratio)": 0.131}, {"variant": "A47U A49G A98G U101A", "polymerase ribozyme fitness (log ratio)": "≤ -4.2"}, {"variant": "U45A U55A", "polymerase ribozyme fitness (log ratio)": -2.95}, {"variant": "A47G A64C G86C C93A G136C A138U G143C", "polymerase ribozyme fitness (log ratio)": "≤ -4.2"}, {"variant": "U45G C51A U53A A73U C85A", "polymerase ribozyme fitness (log ratio)": "≤ -4.2"}, {"variant": "A47G U55A C79G C93U", "polymerase ribozyme fitness (log ratio)": "≤ -4.2"}, {"variant": "G46C G94U C103G C105G G140C", "polymerase ribozyme fitness (log ratio)": "≤ -4.2"}, {"variant": "A47C A52G G100A G141C", "polymerase ribozyme fitness (log ratio)": "≤ -4.2"}, {"variant": "G46A C54A C69G G94C", "polymerase ribozyme fitness (log ratio)": "≤ -4.2"}, {"variant": "A47C C54A C76U C85G A106U G143C", "polymerase ribozyme fitness (log ratio)": "≤ -4.2"}, {"variant": "A47U A107C A110G A119U G126U U135C", "polymerase ribozyme fitness (log ratio)": "≤ -4.2"}, {"variant": "G46U G71A U90A C95G A138U", "polymerase ribozyme fitness (log ratio)": "≤ -4.2"}, {"variant": "A47C G59A G62C G67C G68C C99U A107U C114A A121G", "polymerase ribozyme fitness (log ratio)": "≤ -4.2"}, {"variant": "U45G C93U C95G A120G", "polymerase ribozyme fitness (log ratio)": "≤ -4.2"}, {"variant": "G46C G59C G81A U90G G94C U146A", "polymerase ribozyme fitness (log ratio)": "≤ -4.2"}, {"variant": "G46A U55A C63U U111C C125A", "polymerase ribozyme fitness (log ratio)": "≤ -4.2"}, {"variant": "U45A U55A C57G C96U G141C", "polymerase ribozyme fitness (log ratio)": "≤ -4.2"}, {"variant": "U45A G92U A107U", "polymerase ribozyme fitness (log ratio)": "≤ -4.2"}, {"variant": "G46C U53A C57G C95G", "polymerase ribozyme fitness (log ratio)": "≤ -4.2"}, {"variant": "U45G A64G G74C G88C A98G G136A A142C", "polymerase ribozyme fitness (log ratio)": "≤ -4.2"}, {"variant": "U45G U77G C85G", "polymerase ribozyme fitness (log ratio)": "≤ -4.2"}, {"variant": "A47C U56A C79G G84A A98G A142C", "polymerase ribozyme fitness (log ratio)": "≤ -4.2"}, {"variant": "A47C A49C G83C A120G", "polymerase ribozyme fitness (log ratio)": "≤ -4.2"}, {"variant": "G46A U55G C85U A98C C114U A142U", "polymerase ribozyme fitness (log ratio)": "≤ -4.2"}, {"variant": "A47C C57U C79A G94A U151G", "polymerase ribozyme fitness (log ratio)": "≤ -4.2"}, {"variant": "A47C A49U G59C A66G U78A", "polymerase ribozyme fitness (log ratio)": "≤ -4.2"}, {"variant": "A47U C93U C108A", "polymerase ribozyme fitness (log ratio)": "≤ -4.2"}, {"variant": "A47U G50C A142G U146G", "polymerase ribozyme fitness (log ratio)": "≤ -4.2"}, {"variant": "A47G U90A", "polymerase ribozyme fitness (log ratio)": -3.82}, {"variant": "A47C G86C A91C U109G G117U U144C", "polymerase ribozyme fitness (log ratio)": "≤ -4.2"}, {"variant": "U45A G50C C57U G88A A120U U127G", "polymerase ribozyme fitness (log ratio)": "≤ -4.2"}, {"variant": "A47U G70U A122G", "polymerase ribozyme fitness (log ratio)": -3.45}]}]}
